Results taken from the RNAGym collection of RNA variant scans (doi:10.7554/elife.90254).
The source gives no read counts; variants with many changes may rest on few reads.

B1: OR4K15 (parent)
chain: GUUAACGGUCAUAGGCCAUGGAAACUAGGAGCACCAUUUCGCUGCCAGUGAAGAAAUGAACAAAGAAAAUCUGGGCCAGGCAGGCAUCAAAAGAAAUAGUCUUGCGCUCAACCAGAAAGUCUGUAAUCAUUUUAAGGGUA

Variants of: B1
Assay: self-cleavage, relative activity (ratio to wild type); higher = more cleavage; in vitro, sequencing; the parent is a self-cleaving ribozyme

Variant	self-cleavage
A94G U103C A117U	1.09
A94G U103C A117G	0.58
G80C A126G A129G	0.02
A94G U97A U102C	2.76
U97C A111G A116C	0
A95G A98G A129G	1.66
A78U A110G U120C	0.03
A86U A90G U103C	0.97
U87C A92C A96G	1.83
U87C A111G U122C A126G	0
A86G A117G U124A	1.02
A96G U102C U130C	1.24
A95G A96G U100C U122C U124A	1.26
U102C C105U A117G U120C	0.24
U87A A89G A116G	0.71
A78U U87C U102C	1.75
G84A A118C U124C A125U	1.18
A91U A114G A126G	0.08
A91G A110G A118G	0.19
A78U A91G U100C U102A	0.37
A86G A94G C105A A125U	0
G99A A110G A111G	0.03
A94G C109G A125G	0
A82U A92G A116G	0.06

Variant	self-cleavage
A91G A126G A129G	0.66
A89U A110G A129G	0.09
A91G A92G U102A	0.22
A82G A114U U127C	0.01
U102C G104C U132C	0.05
A96G U102C A118U	1.14
A94G U103C U127C	0.3
U102C C113A C121G U130C	0
A82G U102C U108C	0.01
C88U A117G U124A	1.05
A82U A110G U132G	0.02
A90G C107U A110U A116G A118C A126G A135G	0
A86G A92U A114U	0.02
A89C U102C A114U	0.19
A92G G106C U127C	0.01
A92G A94U A111G	0.01
A96G A117G U122C	1.58
A82G A116G C128U	0.05
A90G U120C U131G	0.51
U97C U120C U122A U124A A126G	0.39
A91G U120C C121U	2.55
A86G U131C U132A	0.8
A78U U108C C109A A116G	0.01
A90G U122C U127C	0.35

Variant	self-cleavage
A89G A90U A114U U132C	0.03
U87A U108A U131C	0.02
A95G U120G A125U	2.57
A95G A116G A129U U133A	1.52
A95G A129G A134G	1.55
U87A A110G A117U	0.22
A78U A91G U100A	0.1
A95G A96G U132C	1.76
A82U A90G A114U	0.02
A89G C113U U122C A129G	0.01
A90U A116G A134U	1.47
U87C A116U A117G A118G A129C	0.02
U87A A96U U108A C128U	0.02
A98C U102C U122A	1.27
A89G A92G C107A A114G A116U	0.01
A91G A117G A126G	0.97
A94C A118G A134G	1.55
A82G U120C A129G	0.21
C81A C85G A89G	0.19
G80U A86G U108C	0.01
A86U A96U U102C A118G	1.58
A94G A114U A116U	0.01
A92G A117G U132A	1.14
U87C A90G A140G	0.36

Variant	self-cleavage
U97C U103C A116G	0.63
C85A A95G A98G	1.12
A91G U97C A118G	0.57
A86U A89G A94G	1.78
A89G A91G A92G G93A	1.55
U102A G106A A114G A140G	0
A82G A116G A135G	0.22
U87C A116G A125U A135G	1.81
A92G A111G A118G	0
A96G U122C U132C	0.89
A94G U102C A129G	2.5
A92G U102C A118U	2.17
U103C A111G A129G A134G U139C	0
C81U A91G U102A U124C	0.02
A91G G104C U108C	0
A82G C85G A92G	0.13
A89G U103C A111G	0.02
A82U A96G U122A	0.03
A89G A95G A96G U102G A114G A125G	0.02
A90G A110U U120A	1.31
U87C A118G U122C	0.75
A82G U108C A117G	0.01
U87C U100C A110G U130C	0.26
U87C U102C U103C	0.35

Variant	self-cleavage
A96U A114U A118G	0.07
A89U U100A A117G	0.75
A90G A91G U97C	0.91
A94G A117G U120C U130C G137A	0.37
C85U U100C U132G	1.88
G83U A126U A129G	0.26
A86U A96G G106U U127C	0.01
U87C U108C U132C A134G	0
U100C U108A A117G U122A	0
U97C A117G U131C	0.26
A78U A86U U127C	0.27
A96G A125G G137U	0.91
A78U A89G A117G	0.34
A82U A114G U132A	0.05
U87C U103A U130A	0.42
A95G U108C U127C	0
A91G A117G U130C	0.65
U87G A96G U122C A125U U132G	0.21
A91G A94G U120C	0.06
A78U A118G U122A	0.09
A90G U130C U139C	0.12
A90G A94G U108C A117G	0.02
A94G U108A A118G	0
A94U U97A A118U	0.69

Variant	self-cleavage
A78U A129G U130C	0.13
A90G U100A U120C U122C U127C	0.2
A98G U102C A114C A117U	0.02
U100A U108A A129G U139C	0.01
G80A A111G A118G	0.02
A91U U102C A126G	1.79
A82G A114G U124C	0.05
A82G A111G A126G	0.02
A89U A95U U103C	1.47
G83U A89G U127C	0.56
A96G U100C A135U	2.31
A89G A111G A116G	0
U87C A92G U100C U102C U103C A126G	0.04
A98G U102C A135U	0.35
A89G A92G U108C U122C A126G U130C	0.01
U87A A116U U122C	0.13
U102C U130C A140G	1.63
A94G A110G U122A A140U	0
G84A A89G U103C U127C	1.78
A91G U108C U130C	0.01
A91G U103C U108C	0.01
A86C U97A U131C	0.51
A90G A117G G138A	1.81
A91U A114U U132C	0.09

Variant	self-cleavage
C85U A92G A118G	1.18
A89U A118G G138A	1.76
A86G A96G U122C	1.17
A82G A95G U100C U131A	1.14
A90G U108C A125G A140G	0.01
A89U A117G U130C A140U	0.23
U87C A111U U132A	0.15
U87G A90G A94G	0.51
U97C U108C A110U	0
A92G U97G U102A U103G	0.09
A90U A111G A118G	0
A96G A111G A118G	0
U87A A91G U122C	1.21
U87C U102C A114G	0.7
G79A A86G U132C	0.08
A86U A95G U102C U131C	1.86
A82G A91G U100C U139C	1.84
C85U U108C U139A	0.03
U100C U103A A116G U127C	0.57
U87C U122C U139C	0.66
U97G U124C A125G	0.7
A95G A114G U122C U124C	0.13
A91G A116G U139G	0.6
